From article PMC12136788
The other results are listed elsewhere or left out.

T1: UNK ZnF1-6 (called full-length) (human, UniProt Q9C0B0 30-357)
T1 sequence: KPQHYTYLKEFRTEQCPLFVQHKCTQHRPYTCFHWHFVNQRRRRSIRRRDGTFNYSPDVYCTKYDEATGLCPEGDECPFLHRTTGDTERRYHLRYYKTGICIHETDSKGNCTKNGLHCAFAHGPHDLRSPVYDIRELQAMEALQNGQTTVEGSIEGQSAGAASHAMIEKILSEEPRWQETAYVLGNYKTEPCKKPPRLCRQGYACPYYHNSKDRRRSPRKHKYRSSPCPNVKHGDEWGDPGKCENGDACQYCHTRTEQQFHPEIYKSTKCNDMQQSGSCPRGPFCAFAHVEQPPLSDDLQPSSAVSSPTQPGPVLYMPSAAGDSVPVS

B1: chr15:50499066:50499164:+|CDS_3pUTR|ENSG00000138592|msi1_unk|total|mutant (ssRNA)
RNA: GGGAGUUCUACAGUCCGACGAUCUACUUCAUUGGGACCACGAGUAACUGAUGCCGCCACAUAAGGAGACACCGGUUAUAAACCCGUUAUCUUUUAAAAGGCUCAGCAACACAACUCUUGAAAUGCUUAUCAGGAUAAUGGCCGCAACAGAGGAUUGAGCAUCA
B2: chr1:213241816:213241921:+|CDS|ENSG00000136643|unk|total|mutant (ssRNA)
RNA: GGGAGUUCUACAGUCCGACGAUCGAGAAACACUAUGCACAGGAGGAUCCCAGGAUGUUAUUUGCCGCAGCUGUUGAUCACCGCCGUUCAGGAGAUAUGUCUUUGUUACCCAGCUCAGAUCCUAAGUUUCAAGGACUUGGAGUGCAACAGAGGAUUGAGCAUCA
B3: chr13:19993219:19993350:+|CDS|ENSG00000121741|unk|FALSE|unique (ssRNA)
RNA: GGGAGUUCUACAGUCCGACGAUCUGAUGAUGAUGUUGUUUUUAUCGAACCUGUACAACCUCCCCCACCUUCUGUACCAGUGGUAGCUGAUCAAAGAACCAUAACAUUUACAUCAUCAAAAAAUGAAGAACUACAAGGAAAUGACAACAGAGGAUUGAGCAUCA
B4: chr11:111497102:111497409:-|CDS|ENSG00000137707|control|control|control (ssRNA)
RNA: GGGAGUUCUACAGUCCGACGAUCGCCGUUAGUAGAGCCUCAUCAGACGUUUCCUCUGGCACUUCCUGCGAUGAAGAAAGUUGUAGCAAGGAACCUCGUGUCAUUCCUAAAGUCAGCAAUCCGAAGAGUAUUUAUCAGGUCAAGCAACAGAGGAUUGAGCAUCA
B5: chr6:89084018:89084151:+|CDS|ENSG00000146278|unk|total|mutant (ssRNA)
RNA: GGGAGUUCUACAGUCCGACGAUCACUGAAGUGAGCCAAAAGGAAAAUUAUGCUGGGGCAAAGUUCCGUGAUCCACCUUCUCCCCGUGUUCUUCCAAAGCCUCCCCGUCACUGGAUGGGAAGCACUGUUGAAAAUUCCAACCAACAACAGAGGAUUGAGCAUCA
B6: chr20:45898604:45898705:+|3pUTR|ENSG00000064601|unk|FALSE|unique (ssRNA)
RNA: GGGAGUUCUACAGUCCGACGAUCAGAGCCCUGUACAUCCCAGACUGGGCCCAGGGUCUCCCAUAGACAGCCUGGGGGCAAGUUAGCACUUUAUUCCCGCAGCAGUUCCUGAAUGGGGUGGCCUGGCCCCUUCUCUGCUUAAAGCAACAGAGGAUUGAGCAUCA
B7: chr6:106663037:106663138:+|CDS|ENSG00000130348|msi1|total|mutant (ssRNA)
RNA: GGGAGUUCUACAGUCCGACGAUCAGCACAGAAAGUGAGACGCCUCAUUGCUAAUGACUUUGUAAAUGCUUUUAACUCUGGAGCCGAUGUCUUGCUAACUCCCACCACCUUGAGUGAGGCAGUACCAUACUUGGAGUUCAUCAACAACAGAGGAUUGAGCAUCA
B8: chr10:128098466:128098636:-|3pUTR|ENSG00000148773|msi1|total|mutant (ssRNA)
RNA: GGGAGUUCUACAGUCCGACGAUCUCCUUUCCUUUCUGAAAAUAAAGUUUUGUGCUUUGGAGAAUGACUCGUGAGCACAUCUUCCGGGACCAAGAGUGACUUUCUGUAAGGAGUGACUCGUGGCUUGCCUUGGUCUCUUGGGAACAACAGAGGAUUGAGCAUCA
B9: chr2:20282997:20283108:-|CDS|ENSG00000055917|unk|total|mutant (ssRNA)
RNA: GGGAGUUCUACAGUCCGACGAUCACUAAUCUGCAAUCUAAUUCAUUUUAUGGAAGCAGUUCUUUGACUAACCGCUCCCAGAGCCGUUCUUUAUUUUCUCAUGGACCUGGUCAACCUGGAAGUACAUCUCUUGGCUUUGGAAGUCAACAGAGGAUUGAGCAUCA
B10: chr9:96818597:96818698:-|CDS|ENSG00000196597|unk|total|mutant (ssRNA)
RNA: GGGAGUUCUACAGUCCGACGAUCGGAGAAACCAUUCGAAUGUCAUGAAUGUGGGAAAUCUUUUAACUAUAAGUCAAUCCUCACCGUGCAUCAGAGAACUCACACAGGGGAGAAACCUUUUGAAUGUAAUGAAUGCGGGAAAUCCAACAGAGGAUUGAGCAUCA
B11: chr22:16590879:16592550:-|CDS|ENSG00000198445|control|control|control (ssRNA)
RNA: GGGAGUUCUACAGUCCGACGAUCCCAAGGAUUUCGAGCAGUGGCUGAGGUGGUGCUACAGCUCGUGACUGUAGAUGAAAUCGUAGUGGCCAAGAAAAGUCCCACACAUCAGGAGAUCUGGAAUCCUGACUCUAAGAAGACAAACAACAGAGGAUUGAGCAUCA
B12: chr12:48653210:48654175:-|three_prime_utr|ENSG00000139620|control|control|control (ssRNA)
RNA: GGGAGUUCUACAGUCCGACGAUCGCACCAUUGUCUCAGAGUGGAUUGGCUACUGCAAAUGGGAAGCCAGAACCCACUUCUAUUAGUUGAUAGUUUGGGGAACCAUUUUACUUUGGUGGAUUUAAAUUUCUCGUUCUUCAAAGACAACAGAGGAUUGAGCAUCA
B13: ENSG00000136451:be:win_901|CDS|ENSG00000136451|bound_else_gene|NA|bound_elsewhere_windowed (ssRNA)
RNA: GGGAGUUCUACAGUCCGACGAUCAUCACCAGCCACUUAAAGACUCAUGGGCAGAGCCAAAGUAUCAACUGUAAUACAUGUAAACAAGGCAUCAGUAAAACAUGCAUGAGUGAAGAGACCAGUAACCAAAAGCAGCAGCAGCAGCAACAGAGGAUUGAGCAUCA
B14: ENSG00000163697:stop:overlap|stop_codon|ENSG00000163697|stop_codon|NA|stop_codon (ssRNA)
RNA: GGGAGUUCUACAGUCCGACGAUCGAGGGGUCUUAUCCCUCAUUGACACUUUGAAACAGAAACGCCCUGUCACCGAAAUGCCAUAGCUGCACAUGCAAAAGGACUCGGCUAUUUACCUGAAGAUUGACUAGCUACACUAAAGAACAACAGAGGAUUGAGCAUCA

Each binder was assayed against T1, UNK ZnF1-6 (called full-length) (assay: nsRBNS (natural sequence RNA bind-n-seq); RBNS binding buffer (assumed for nsRBNS): 25 mM Tris pH 7.5, 150 mM KCl, 3 mM MgCl2, 0.01% Triton X-100, 500 ug/ml BSA, 20 U/ml SUPERase-In, 4 C; UNK is unkempt and MSI1 is Musashi-1; names of the RNAs are library labels; protein concentration not given here; high values mean tight binding).

Q: For B1, which binding signal is on record?
A: The binding signal was 0.416 enrichment R.

Q: For B2, which binding signal is on record?
A: Its binding signal is 0.721 enrichment R.

Q: B3 was tested. Which binding signal did it give?
A: Its binding signal is 0.421 enrichment R.

Q: With B4 as the binder, how does the binding signal read?
A: Its binding signal is 0.792 enrichment R.

Q: B5 was tested. Which binding signal did it give?
A: Its binding signal is 0.44 enrichment R.

Q: For B6, which binding signal is on record?
A: Its binding signal is 1.55 enrichment R.

Q: B7 was tested. Which binding signal did it give?
A: The binding signal was 0.571 enrichment R.

Q: Which binding signal does the source give for B8 here?
A: The binding signal was 0.483 enrichment R.

Q: For B9, which binding signal is on record?
A: The binding signal was 0.485 enrichment R.

Q: B10 was tested. Which binding signal did it give?
A: The binding signal was 0.633 enrichment R.

Q: With B11 as the binder, how does the binding signal read?
A: The binding signal was 0.893 enrichment R.

Q: B12 was tested. Which binding signal did it give?
A: The binding signal was 0.532 enrichment R.

Q: How did the binding signal turn out when B13 was run?
A: Its binding signal is 0.782 enrichment R.

Q: With B14 as the binder, how does the binding signal read?
A: The binding signal was 0.61 enrichment R.
